According to PubChem BioAssay AID1671188 (National Center for Advancing Translational Sciences (NCATS), 2021):
Among all 100,000 compounds or so, about 250 (0.25%) were called active. The shares of active, inactive and inconclusive entries below differ from those in the screen. Calls follow the shape of the dose curve; as a rule, active = well fitted inhibition curve with a large enough effect; inconclusive = small, poorly fitted or top-dose-only effect; inactive = flat fitted curve, though single readings scatter. Potencies of inconclusive entries are left out as doubtful fits.

Each compound was assayed against Alanine aminotransferase 2 (Homo sapiens) (UniProt Q8TD30) (assay: Primary qHTS assay for inhibitors of Glutamate pyruvate transaminase 2 (GPT2)). Conditions: Recombinant GPT2, coupled pyruvate oxidase/HRP Amplex Red fluorescence; series mostly up to 57.7 µM.
UniProt Q8TD30, sequence (Q8TD30 whole entry, looked up): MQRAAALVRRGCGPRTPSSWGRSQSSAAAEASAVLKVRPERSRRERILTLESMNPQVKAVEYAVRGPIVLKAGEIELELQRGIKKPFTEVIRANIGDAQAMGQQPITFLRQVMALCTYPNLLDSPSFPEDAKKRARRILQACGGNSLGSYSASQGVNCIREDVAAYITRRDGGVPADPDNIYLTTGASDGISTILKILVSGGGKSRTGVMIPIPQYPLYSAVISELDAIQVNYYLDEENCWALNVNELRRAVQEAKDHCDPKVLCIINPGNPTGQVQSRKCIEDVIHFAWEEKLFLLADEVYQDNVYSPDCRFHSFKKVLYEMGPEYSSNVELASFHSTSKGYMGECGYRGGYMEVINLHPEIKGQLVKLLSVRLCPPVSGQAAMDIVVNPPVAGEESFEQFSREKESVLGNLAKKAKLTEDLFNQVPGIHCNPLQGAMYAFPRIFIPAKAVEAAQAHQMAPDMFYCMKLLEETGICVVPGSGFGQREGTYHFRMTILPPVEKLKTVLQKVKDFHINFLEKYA
Method in brief: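 Fluorescence read-out: pyruvate from GPT2 turnover coupled to pyruvate oxidase, HRP and Amplex Red (0.2mM ThPP, 0.2U/mL PO and HRP, 50uM Amplex final). Substrates 250uM a-KG, 2mM L-alanine; enzyme 10ng/uL; 30 min RT.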
Also: nearly all actives have a fitted effect of over 60% in size.
Potency is read from the fitted curve at half-maximal effect; tags tell the direction and shape of the fitted curve.

How did the Potency turn out when COc1ccccc1-c1c[nH]c2ncc(-c3cncc(C(=O)N(C)C)c3)cc12 was run?
Its Potency is inconclusive [inhibitor, single point].

How did the Potency turn out when FC(F)(F)c1cccc(CCC2CCCN(Cc3cccnc3)C2)c1 (configuration not stated) was run?
Its Potency is “inactive”.

Which Potency does the source give for COc1ccc(-c2cc3c(=O)n(CCNC(=O)c4cccc(N(C)C)c4)ccn3n2)cc1 here?
The Potency was “inactive”.

O=C(NC1CCN(c2cc(-c3ccc(Cl)cc3)[nH]n2)C1)c1cccnc1 (configuration not stated) was tested. Which Potency did it give?
The Potency was inconclusive [inhibitor, partial curve].

Which Potency does the source give for O=C(NC[C@H]1OC[C@@H](N(Cc2ccccc2)Cc2ccccc2)[C@@H]1O)Nc1ccccc1 here?
Its Potency is “inactive”.

Which Potency does the source give for COC(=O)c1ccc(CNC(=O)CC2c3cccnc3C(=O)N2c2c(Cl)cccc2Cl)cc1 (configuration not stated) here?
Its Potency is “inactive”.

For CC1(C)NC(=O)N(c2ccc([N+](=O)[O-])c(C(F)(F)F)c2)C1=O, which Potency is on record?
Its Potency is inconclusive [inhibitor, single point].

For CN(C)C(=O)C1CN(C(=O)Nc2cccc(Cl)c2F)CC12CCOCC2 (configuration not stated), which Potency is on record?
Its Potency is inconclusive [inhibitor, single point].

How did the Potency turn out when Cc1nonc1OCCNC1CCC2(CCNCC2)CC1 was run?
The Potency was inconclusive [inhibitor, single point].

How did the Potency turn out when CCN1CCN(CCNC(=O)c2cc(-c3ccc(C)cc3)cn2C)CC1 was run?
The Potency was inconclusive [inhibitor, single point].

How did the Potency turn out when COc1ccc(C(=O)N2CCCN(c3cc(-c4ccc(F)cc4)[nH]n3)CC2)c(C)c1 was run?
Its Potency is inconclusive [inhibitor, single point].

With O=C(NCc1ccc(F)cc1)C1(CCO)CC12CCOCC2 (configuration not stated) as the compound, how does the Potency read?
The Potency was “inactive”.

For CC(=O)Nc1ccc(S(=O)(=O)N[C@H]2CO[C@H]3[C@@H]2OC[C@H]3OC(=O)Nc2ccc(Oc3ccccc3)cc2)cc1, which Potency is on record?
Its Potency is inconclusive [inhibitor, single point].

For C#CCNC(=O)[C@H]1O[C@H](CCN2CCN(Cc3ccccc3)CC2)CC[C@@H]1O, which Potency is on record?
The Potency was inconclusive [inhibitor, single point].

COCC(=O)NC[C@@H]1C=C(C)[C@H](CC(=O)NCc2ccc(F)cc2)C[C@H]1C(C)C was tested. Which Potency did it give?
Its Potency is inconclusive [inhibitor, single point].

With C#CCNC(=O)c1cc(-c2ccccc2)nc2c1cnn2C as the compound, how does the Potency read?
Its Potency is inconclusive [inhibitor, single point].

Which Potency does the source give for Cc1c(-c2ccccc2F)[nH]c2ccc(CNC(=O)CCN3CCCO3)cc12 here?
Its Potency is “inactive”.

With COc1ccc(CNC(=O)CC[C@H]2CNC(=O)[C@@H]3[C@@H](CCN3Cc3ccccc3)N2C)cc1 as the compound, how does the Potency read?
The Potency was inconclusive [inhibitor, partial curve, poor fit].

CCC(C)n1ncn(-c2ccc(N3CCN(c4ccc(OC[C@H]5CO[C@](Cn6cncn6)(c6ccc(Cl)cc6Cl)O5)cc4)CC3)cc2)c1=O (some centres not stated) was tested. Which Potency did it give?
Its Potency is inconclusive [inhibitor, partial curve, poor fit].

How did the Potency turn out when CN1CCC(C2CCNC2)CC1 (configuration not stated) was run?
Its Potency is “inactive”.

O=C(NCCCc1ccccc1)C1CCCCN1Cc1ccc(-c2cccs2)cc1 (configuration not stated) was tested. Which Potency did it give?
The Potency was “inactive”.

Which Potency does the source give for COC(=O)N1CCC(c2nn(-c3ccc(OC)cc3)c(=O)[nH]2)CC1 here?
The Potency was inconclusive [inhibitor, single point].

For COc1ncccc1-c1nccc2c(=O)cc(N(C)C3CCOCC3)oc12, which Potency is on record?
Its Potency is “inactive”.

For O=C(Cc1c[nH]c2ccccc12)N1CCCN(c2cc(-c3ccc(Br)cc3)[nH]n2)CC1, which Potency is on record?
The Potency was inconclusive [inhibitor, partial curve].

With O=C(c1ccccc1F)N1CCn2c(nnc2C2CC2)C1 as the compound, how does the Potency read?
The Potency was “inactive”.

For CC1(C)[C@H](Cc2cc(CCO)on2)C[C@@H]1NCc1ccncc1, which Potency is on record?
Its Potency is “inactive”.

O=C1[C@H]2CC[C@H](CN(Cc3ccc(-n4ccnc4)cc3)C2)N1CC1CCC1 was tested. Which Potency did it give?
The Potency was “inactive”.

With COc1ccc(-c2noc([C@@H]3C[C@@H](O)CN3C3CCCCC3)n2)cc1 as the compound, how does the Potency read?
Its Potency is inconclusive [inhibitor, full curve, poor fit].

Cc1ccc(C(=O)N2CCC(c3n[nH]c(=O)n3Cc3ccc(F)cc3)CC2)cc1F was tested. Which Potency did it give?
The Potency was “inactive”.

How did the Potency turn out when COc1cc(=O)n2c(c1C(=O)Nc1cccc(C(F)(F)F)c1)CCCC2 was run?
The Potency was inconclusive [inhibitor, single point].

For Cc1cccc(C(=O)N2CC(N(C)Cc3cccnc3)C2)c1, which Potency is on record?
Its Potency is inconclusive [inhibitor, single point].

Which Potency does the source give for COCCN1C(=O)[C@@H]2C[C@@H](CN2Cc2ccccc2Cl)Oc2ccccc21 here?
Its Potency is inconclusive [inhibitor, single point].

Which Potency does the source give for COCCOCC1(CNC(=O)COc2ccccc2)C[C@@H](O)[C@@H](O)C1 (some centres not stated) here?
The Potency was inconclusive [inhibitor, full curve, poor fit].

For O=C(CNC(=O)c1ccc(-c2cccc(C(F)(F)F)c2)cc1)NCCc1ccc(F)cc1, which Potency is on record?
The Potency was inconclusive [inhibitor, single point].

Which Potency does the source give for C[C@H]1[C@@H](O)[C@H](O)C2[C@]3(C)C([C@@H](O)[C@H]4OC(=O)[C@@H]1[C@@]24C)[C@](C)(O)C=C[C@H]3O[C@@H]1O[C@H](CO)[C@@H](O)[C@H](O)[C@H]1O (some centres not stated) here?
Its Potency is “inactive”.

Which Potency does the source give for CC[C@H]1CN(C(=O)Nc2cccc(C(F)(F)F)c2)CC[C@H]1CC(=O)NCCSC here?
Its Potency is inconclusive [inhibitor, single point].

For O=S(=O)(O)CCS, which Potency is on record?
Its Potency is inconclusive [inhibitor, single point].

For Cc1ccc(C)c(-c2[nH]ncc2CN2CCCC(O)(CN(C)C)C2)c1 (configuration not stated), which Potency is on record?
Its Potency is inconclusive [inhibitor, partial curve, poor fit].

How did the Potency turn out when Fc1cccc(-c2cnc(Nc3cnccn3)c3c2CCO3)c1 was run?
Its Potency is “inactive”.

With O=C(Nc1cccc(F)c1)N1CCc2nnc(C3CC3)n2CC1 as the compound, how does the Potency read?
The Potency was “inactive”.

How did the Potency turn out when O=C(Cc1cccs1)N1CCC(c2n[nH]c(=O)n2Cc2ccc(F)cc2)CC1 was run?
Its Potency is inconclusive [inhibitor, full curve, poor fit].

With COc1cc(CNC(=O)[C@@H]2C[C@H](c3ccc(F)cc3)N(Cc3csc(C)n3)C2)cc(OC)c1 as the compound, how does the Potency read?
The Potency was inconclusive [inhibitor, partial curve, poor fit].
